# From the supplement of paper PMC8728848
# Some of the results follow.
# Key:
# Experiment in all cases: glycan array binding signal (z-score within array); higher = stronger binding
# Details in all cases: glycan notation: IUPAC condensed, linker removed
# [1] = target: Gal(b1-3)GlcNAc(b1-2)Man(a1-3)[Gal(b1-3)GlcNAc(b1-2)Man(a1-6)]Man(b1-4)GlcNAc(b1-4)[Fuc(a1-6)]GlcNAc
# Summary of the method: (§1)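 From the Consortium for Functional Glycomics database, 3228 arrays were curated, keeping only those whose protein sequence was available. Binding is given as a within-array Z-score averaged across arrays sharing a protein sequence and across linkers. Negative Z-scores can be read as non-binding.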
# [2] = target: Gal(b1-3)GlcNAc(b1-3)Gal(b1-3)GlcNAc
# Summary of the method: as §1
# [3] = target: Gal(b1-3)GlcNAc(b1-3)Gal(b1-4)Glc
# Summary of the method: as §1
# [4] = target: Gal(b1-3)GlcNAc(b1-3)Gal(b1-4)GlcNAc
# Summary of the method: as §1
# [5] = target: Gal(b1-3)GlcNAc(b1-3)Gal(b1-4)GlcNAc(b1-6)[Gal(b1-3)GlcNAc(b1-3)]Gal(b1-4)Glc
# Summary of the method: as §1
# [6] = target: Gal(b1-3)GlcNAc(b1-3)Gal(b1-4)[Fuc(a1-3)]GlcNAc(b1-6)[Gal(b1-3)GlcNAc(b1-3)]Gal(b1-4)Glc
# Summary of the method: as §1
# [7] = target: Gal(b1-3)GlcNAc(b1-3)GalNAc
# Summary of the method: as §1
# [8] = target: Gal(b1-3)GlcNAc(b1-6)Gal(b1-4)GlcNAc
# Summary of the method: as §1
# [9] = target: Gal(b1-3)[Fuc(a1-4)]GlcNAc
# Summary of the method: as §1
# [10] = target: Gal(b1-3)[Fuc(a1-4)]GlcNAc(b1-2)Man(a1-3)[Gal(b1-3)[Fuc(a1-4)]GlcNAc(b1-2)Man(a1-6)]Man(b1-4)GlcNAc(b1-4)GlcNAc
# Summary of the method: as §1
# [11] = target: Gal(b1-3)[Fuc(a1-4)]GlcNAc(b1-2)Man(a1-3)[Gal(b1-3)[Fuc(a1-4)]GlcNAc(b1-2)Man(a1-6)]Man(b1-4)GlcNAc(b1-4)[Fuc(a1-6)]GlcNAc
# Summary of the method: as §1
# [12] = target: Gal(b1-3)[Fuc(a1-4)]GlcNAc(b1-3)Gal(b1-3)[Fuc(a1-4)]GlcNAc
# Summary of the method: as §1
# [13] = target: Gal(b1-3)[Fuc(a1-4)]GlcNAc(b1-3)Gal(b1-4)GlcNAc
# Summary of the method: as §1
# [14] = target: Gal(b1-3)[Fuc(a1-4)]GlcNAc(b1-3)Gal(b1-4)[Fuc(a1-3)]GlcNAc
# Summary of the method: as §1
# [15] = target: Gal(b1-3)[GlcNAc(b1-6)]GalNAc
# Summary of the method: as §1
# [16] = target: Gal(b1-3)[Neu5Ac(a2-6)]GalNAc
# Summary of the method: as §1
# [17] = target: Gal(b1-3)[Neu5Ac(a2-6)]GlcNAc(b1-6)Gal(b1-4)Glc
# Summary of the method: as §1
# [18] = target: Gal(b1-3)[Neu5Ac(b2-6)]GalNAc
# Summary of the method: as §1
# [19] = target: Gal(b1-4)GalNAc(a1-3)[Fuc(a1-2)]Gal(b1-4)GlcNAc
# Summary of the method: as §1
# [20] = target: Gal(b1-4)GalNAc(b1-3)[Fuc(a1-2)]Gal(b1-4)GlcNAc
# Summary of the method: as §1
# [21] = target: Gal(b1-4)Glc
# Summary of the method: as §1
# [22] = target: Gal(b1-4)Glc6S
# Summary of the method: as §1
# [23] = target: Gal(b1-4)GlcNAc
# Summary of the method: as §1
# [24] = target: Gal(b1-4)GlcNAc(a1-6)Gal(b1-4)GlcNAc
# Summary of the method: as §1
# [25] = target: Gal(b1-4)GlcNAc(b1-2)Man(a1-3)Man(b1-4)GlcNAc(b1-4)GlcNAc
# Summary of the method: as §1
# [26] = target: Gal(b1-4)GlcNAc(b1-2)Man(a1-3)[Gal(b1-4)GlcNAc(b1-2)Man(a1-6)]Man(b1-4)GlcNAc(b1-4)GlcNAc
# Summary of the method: as §1
# [27] = target: Gal(b1-4)GlcNAc(b1-2)Man(a1-3)[Gal(b1-4)GlcNAc(b1-2)Man(a1-6)]Man(b1-4)GlcNAc(b1-4)[Fuc(a1-6)]GlcNAc
# Summary of the method: as §1
# [28] = target: Gal(b1-4)GlcNAc(b1-2)Man(a1-3)[GlcNAc(b1-2)Man(a1-6)]Man(b1-4)GlcNAc(b1-4)GlcNAc
# Summary of the method: as §1
# [29] = target: Gal(b1-4)GlcNAc(b1-2)Man(a1-3)[Man(a1-6)]Man(b1-4)GlcNAc(b1-4)GlcNAc
# Summary of the method: as §1
# [30] = target: Gal(b1-4)GlcNAc(b1-2)Man(a1-6)Man(b1-4)GlcNAc(b1-4)GlcNAc
# Summary of the method: as §1
# [31] = target: Gal(b1-4)GlcNAc(b1-2)Man(a1-6)[GlcNAc(b1-2)Man(a1-3)]Man(b1-4)GlcNAc(b1-4)GlcNAc
# Summary of the method: as §1
# [32] = target: Gal(b1-4)GlcNAc(b1-2)Man(a1-6)[Man(a1-3)]Man(b1-4)GlcNAc(b1-4)GlcNAc
# Summary of the method: as §1
# [33] = target: Gal(b1-4)GlcNAc(b1-2)[Gal(b1-4)GlcNAc(b1-4)]Man(a1-3)[Gal(b1-4)GlcNAc(b1-2)Man(a1-6)]Man(b1-4)GlcNAc(b1-4)GlcNAc
# Summary of the method: as §1
# [34] = target: Gal(b1-4)GlcNAc(b1-2)[Gal(b1-4)GlcNAc(b1-4)]Man(a1-3)[Gal(b1-4)GlcNAc(b1-2)[Gal(b1-4)GlcNAc(b1-6)]Man(a1-6)]Man(b1-4)GlcNAc(b1-4)GlcNAc
# Summary of the method: as §1
# [35] = target: Gal(b1-4)GlcNAc(b1-3)Gal(b1-3)GlcNAc
# Summary of the method: as §1
# [36] = target: Gal(b1-4)GlcNAc(b1-3)Gal(b1-4)Glc
# Summary of the method: as §1
# [37] = target: Gal(b1-4)GlcNAc(b1-3)Gal(b1-4)GlcNAc
# Summary of the method: as §1
# [38] = target: Gal(b1-4)GlcNAc(b1-3)Gal(b1-4)GlcNAc(b1-3)Gal(b1-4)GlcNAc
# Summary of the method: as §1
binder,measurement,setting,value
"Pp2-A2 (Arabidopsis thaliana), Q07098 (protein) MPSNGDLDRQIEQLMECKPLSEADVRTLCDQARAILVEEYNVQPVKCPVTVCGDIHGQFYDLIELFRIGGNAPDTNYLFMGDYVDRGYYSVETVSLLVALKVRYRDRLTILRGNHESRQITQVYGFYDECLRKYGNANVWKYFTDLFDYLPLTALIESQVFCLHGGLSPSLDTLDNIRSLDRIQEVPHEGPMCDLLWSDPDDRCGWGISPRGAGYTFGQDIAAQFNHNNGLSLISRAHQLVMEGFNWCQDKNVVTVFSAPNYCYRCGNMAAILEIGENMEQNFLQFDPAPRQVEPDTTRKTPDYFL",glycan array binding signal (z-score),[1],0.587
same,glycan array binding signal (z-score),[2],-0.311
same,glycan array binding signal (z-score),[3],-0.239
same,glycan array binding signal (z-score),[4],-0.072
same,glycan array binding signal (z-score),[5],-0.487
same,glycan array binding signal (z-score),[6],-0.514
same,glycan array binding signal (z-score),[7],-0.25
same,glycan array binding signal (z-score),[8],-0.856
same,glycan array binding signal (z-score),[9],-0.535
same,glycan array binding signal (z-score),[10],0.233
same,glycan array binding signal (z-score),[11],-0.488
same,glycan array binding signal (z-score),[12],0.465
same,glycan array binding signal (z-score),[13],-0.133
same,glycan array binding signal (z-score),[14],-0.428
same,glycan array binding signal (z-score),[15],-0.491
same,glycan array binding signal (z-score),[16],-0.374
same,glycan array binding signal (z-score),[17],-0.424
same,glycan array binding signal (z-score),[18],-0.195
same,glycan array binding signal (z-score),[19],0.189
same,glycan array binding signal (z-score),[20],-0.182
same,glycan array binding signal (z-score),[21],0.389
same,glycan array binding signal (z-score),[22],0.594
same,glycan array binding signal (z-score),[23],-0.453
same,glycan array binding signal (z-score),[24],-0.704
same,glycan array binding signal (z-score),[25],-0.288
same,glycan array binding signal (z-score),[26],-0.245
same,glycan array binding signal (z-score),[27],0.609
same,glycan array binding signal (z-score),[28],-0.42
same,glycan array binding signal (z-score),[29],-0.152
same,glycan array binding signal (z-score),[30],-0.53
same,glycan array binding signal (z-score),[31],-0.175
same,glycan array binding signal (z-score),[32],-0.519
same,glycan array binding signal (z-score),[33],-0.448
same,glycan array binding signal (z-score),[34],-0.537
same,glycan array binding signal (z-score),[35],-0.335
same,glycan array binding signal (z-score),[36],-0.032
same,glycan array binding signal (z-score),[37],-0.234
same,glycan array binding signal (z-score),[38],-0.634
